Assay results from the supplement of paper PMC12217912.
Some of the results follow. Sequences were assembled here from the parent chain. Inactive controls read about 0.05.

B1: TEV protease; numbered along this chain (parent)
chain: MGESLFKGPRDYNPISSSICHLTNESDGHTTSLYGIGFGPFIITNKHLFRRNNGTLVVQSLHGVFKVKDTTTLQQHLVDGRDMIIIRMPKDFPPFPQKLKFREPQREERICLVTTNFQTKSMSSMVSDTSCTFPSGDGIFWKHWIQTKDGQCGSPLVSTRDGFIVGIHSASNFTNTNNYFTSVPKNFMELLTNQEAQQWVSGWRLNADSVLWGGHKVFMVKPEEPFQPVKEATQL

Variants of: B1
Assay: raw area under fraction-flipped curve 0-4 h after induction (AUC4h, not background-subtracted), DNA-recorder readout of cleavage of the substrate (dimensionless); higher = more cleavage of the substrate by the protease variant
Conditions: temperature: 34 °C; time window: 0-4 h after rhamnose induction
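Note: Bxb1 expression induced with 0.2% (w/v) L-rhamnose at OD600 near 0.5, cultures sampled hourly, flipped fraction per protease–substrate barcode pair counted by paired-end Illumina sequencing.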

| Variant | area with substrate ENLYFQG | area with substrate ENLYFQH | area with substrate ENLYFQI | area with substrate ENLYFQK | area with substrate ENLYFQL | area with substrate ENLYFQM | area with substrate ENLYFQQ | area with substrate ENLYFQR | area with substrate ENLYFQS | area with substrate ENLYFQT |
| --- | --- | --- | --- | --- | --- | --- | --- | --- | --- | --- |
| N178D | 0.0607 | 0.0692 | 0.0489 | 0.0564 | 0.0507 | 0.0412 | 0.0707 | 0.0554 | 0.0656 | 0.0525 |
| M188A | 0.0772 |  | 0.045 | 0.0538 | 0.0668 | 0.0583 | 0.0728 | 0.0597 | 0.0968 | 0.0634 |
| M125I | 0.0947 |  | 0.074 |  | 0.053 | 0.0941 |  |  | 0.0995 |  |
| L205K | 0.0515 |  |  |  |  |  |  | 0.0719 | 0.0631 | 0.0515 |
| K185H | 0.11 | 0.0879 |  |  |  |  |  | 0.0646 | 0.115 |  |
| K90R | 0.084 |  | 0.0619 | 0.0751 | 0.0602 | 0.08 |  |  | 0.103 |  |
| G213V | 0.0619 |  |  |  |  |  |  |  | 0.0598 |  |
| Q75I | 0.0822 |  | 0.0495 | 0.0683 |  |  |  |  | 0.084 |  |
| V157P | 0.0428 |  |  | 0.0507 | 0.0515 | 0.0522 |  | 0.0513 | 0.0509 | 0.047 |
| N172T | 0.0653 |  | 0.0627 | 0.0459 | 0.048 |  | 0.0686 | 0.056 | 0.0702 |  |
| F6S | 0.115 |  | 0.0478 | 0.0566 |  |  | 0.0422 | 0.0546 | 0.102 |  |
| P225Q |  | 0.0676 |  |  | 0.0601 |  |  | 0.0556 | 0.1 |  |
| T114E |  | 0.0671 |  | 0.0679 | 0.0612 | 0.114 |  | 0.0509 | 0.0859 | 0.0748 |
| D69Y |  | 0.0516 |  | 0.0584 | 0.0287 |  |  | 0.0765 | 0.0811 | 0.0654 |
| W212P |  | 0.0422 |  |  | 0.0275 |  | 0.0492 | 0.0554 | 0.0602 |  |
| K98D |  | 0.0624 | 0.0649 | 0.0682 | 0.0702 |  | 0.0692 | 0.0656 | 0.106 | 0.0644 |
| S169E |  |  | 0.0375 | 0.0549 |  | 0.0712 |  | 0.054 | 0.0582 | 0.0714 |
| S123Y |  |  | 0.0496 | 0.0519 | 0.0585 |  |  | 0.0604 | 0.108 |  |
| L205I |  |  | 0.062 |  | 0.0655 |  |  |  | 0.0981 | 0.063 |
| Q59D |  |  | 0.0466 |  | 0.0738 | 0.0772 |  | 0.0542 | 0.0884 | 0.079 |
| F65D |  |  | 0.0565 |  | 0.0597 | 0.0611 | 0.0688 |  | 0.0829 |  |
| F101L |  |  | 0.0551 | 0.0579 | 0.0488 |  |  | 0.0551 | 0.087 |  |
| Q146S |  |  |  | 0.0566 | 0.0453 |  |  |  | 0.0945 | 0.0458 |

Same assay, conditions: temperature: 34 °C; time window: 0-4 h after rhamnose induction

| Variant | area with substrate ENLYFQY | area with substrate ENLYFQN | area with substrate ENLYFQV | area with substrate ENLYFQW | area with substrate ENLYFQP |
| --- | --- | --- | --- | --- | --- |
| N178D | 0.0614 |  |  |  |  |
| M188A |  | 0.0711 | 0.0364 | 0.0634 |  |
| L205K |  |  | 0.0518 |  |  |
| K90R |  |  |  | 0.0735 |  |
| G213V |  | 0.0594 |  | 0.0279 |  |
| V157P | 0.0651 | 0.0487 | 0.0537 |  |  |
| N172T |  |  |  | 0.0477 |  |
| F6S | 0.0867 | 0.0976 | 0.0607 |  | 0.067 |
| P225Q |  | 0.0609 |  | 0.0715 |  |
| D69Y |  |  |  | 0.056 |  |
| W212P | 0.052 |  |  | 0.0747 | 0.0731 |
| K98D | 0.0672 |  |  | 0.059 |  |
| S169E |  | 0.0531 |  | 0.0624 |  |
| S123Y |  |  |  | 0.0607 | 0.065 |
| Q59D |  |  |  |  | 0.0501 |
| F65D |  |  | 0.0588 | 0.0511 |  |
| F101L |  | 0.0485 | 0.0472 | 0.0615 | 0.0546 |
